# According to the supplement of paper PMC8728848:
# The list shows a part of the results.
# B1: CFEM-PPm (Pichia pastoris), F2QPV1 (protein)
# chain: AVATPPACLLACAAEVVKESSDCDALNNIQCICENEGSAIHACLESTCPDGLSSTALQSFEDVCE
# Columns and labels:
# Test in all cases: glycan array binding signal (z-score within array); higher = stronger binding
# Settings in all cases: glycan notation: IUPAC condensed, linker removed
# [1] = molecular target: GlcNAc(b1-4)GlcNAc(b1-4)GlcNAc(b1-4)GlcNAc(b1-4)GlcNAc
# Summary of the method: (§1)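 Negative Z-scores can be read as non-binding. The Z-score is calculated within each array and then averaged across arrays of one protein sequence at different concentrations or buffers and across linkers. Arrays, 3228 in all, were curated from the Consortium for Functional Glycomics database and kept only where the protein sequence was available.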
# [2] = molecular target: GlcNAc(b1-4)GlcNAc(b1-4)GlcNAc(b1-4)GlcNAc(b1-4)GlcNAc(b1-4)GlcNAc
# Summary of the method: as §1
# [3] = molecular target: GlcNAc(b1-4)[GlcNAc(b1-6)]GalNAc
# Summary of the method: as §1
# [4] = molecular target: GlcNAc(b1-6)Gal(b1-4)GlcNAc
# Summary of the method: as §1
# GlcNAc(b1-6)GalNAc = molecular target: GlcNAc(b1-6)GalNAc
# Summary of the method: as §1
# [5] = molecular target: GlcNAc6S(b1-3)Gal(b1-4)GlcNAc
# Summary of the method: as §1
# Kdn(a2-3)Gal(b1-3)GalNAc = molecular target: Kdn(a2-3)Gal(b1-3)GalNAc
# Summary of the method: as §1
# Kdn(a2-3)Gal(b1-3)GlcNAc = molecular target: Kdn(a2-3)Gal(b1-3)GlcNAc
# Summary of the method: as §1
# Kdn(a2-3)Gal(b1-4)Glc = molecular target: Kdn(a2-3)Gal(b1-4)Glc
# Summary of the method: as §1
# Kdn(a2-3)Gal(b1-4)GlcNAc = molecular target: Kdn(a2-3)Gal(b1-4)GlcNAc
# Summary of the method: as §1
# [6] = molecular target: Kdn(a2-3)Gal(b1-4)[Fuc(a1-3)]GlcNAc
# Summary of the method: as §1
# Kdn(a2-6)Gal(b1-4)GlcNAc = molecular target: Kdn(a2-6)Gal(b1-4)GlcNAc
# Summary of the method: as §1
# [7] = molecular target: Man(a1-2)Man(a1-2)Man(a1-3)Man
# Summary of the method: as §1
# [8] = molecular target: Man(a1-2)Man(a1-2)Man(a1-6)[Man(a1-3)]Man
# Summary of the method: as §1
# Man(a1-2)Man(a1-3)Man = molecular target: Man(a1-2)Man(a1-3)Man
# Summary of the method: as §1
# [9] = molecular target: Man(a1-2)Man(a1-3)[Man(a1-2)Man(a1-6)]Man
# Summary of the method: as §1
# [10] = molecular target: Man(a1-2)Man(a1-3)[Man(a1-2)Man(a1-6)]Man(a1-6)[Man(a1-2)Man(a1-2)Man(a1-3)]Man
# Summary of the method: as §1
# [11] = molecular target: Man(a1-2)Man(a1-3)[Man(a1-2)Man(a1-6)]Man(a1-6)[Man(a1-2)Man(a1-2)Man(a1-3)]Man(b1-4)GlcNAc(b1-4)GlcNAc
# Summary of the method: as §1
# [12] = molecular target: Man(a1-2)Man(a1-3)[Man(a1-6)]Man(a1-6)[Man(a1-2)Man(a1-3)]Man(b1-4)GlcNAc(b1-4)GlcNAc
# Summary of the method: as §1
# [13] = molecular target: Man(a1-2)Man(a1-6)[Man(a1-3)]Man(a1-6)[Man(a1-2)Man(a1-2)Man(a1-3)]Man
# Summary of the method: as §1
# [14] = molecular target: Man(a1-2)Man(a1-6)[Man(a1-3)]Man(a1-6)[Man(a1-2)Man(a1-2)Man(a1-3)]Man(b1-4)GlcNAc(b1-4)GlcNAc
# Summary of the method: as §1
# Man(a1-3)[Man(a1-6)]Man = molecular target: Man(a1-3)[Man(a1-6)]Man
# Summary of the method: as §1
# [15] = molecular target: Man(a1-3)[Man(a1-6)]Man(a1-6)[Man(a1-2)Man(a1-3)]Man(b1-4)GlcNAc(b1-4)GlcNAc
# Summary of the method: as §1
# [16] = molecular target: Man(a1-3)[Man(a1-6)]Man(a1-6)[Man(a1-3)]Man
# Summary of the method: as §1
# [17] = molecular target: Man(a1-3)[Man(a1-6)]Man(a1-6)[Man(a1-3)]Man(b1-4)GlcNAc(b1-4)GlcNAc
# Summary of the method: as §1
# [18] = molecular target: Man(a1-3)[Man(a1-6)]Man(b1-4)GlcNAc(b1-4)GlcNAc
# Summary of the method: as §1
# [19] = molecular target: Man(a1-3)[Man(a1-6)]Man(b1-4)GlcNAc(b1-4)[Fuc(a1-6)]GlcNAc
# Summary of the method: as §1
# Man(a1-6)Man = molecular target: Man(a1-6)Man
# Summary of the method: as §1
# Man(b1-4)GlcNAc = molecular target: Man(b1-4)GlcNAc
# Summary of the method: as §1
# MurNAc(b1-4)GlcNAc = molecular target: MurNAc(b1-4)GlcNAc
# Summary of the method: as §1
# Neu5Ac(a2-3)Gal = molecular target: Neu5Ac(a2-3)Gal
# Summary of the method: as §1
# [20] = molecular target: Neu5Ac(a2-3)Gal(b1-3)GalNAc
# Summary of the method: as §1
# [21] = molecular target: Neu5Ac(a2-3)Gal(b1-3)GalNAc(b1-3)Gal(a1-4)Gal(b1-4)Glc
# Summary of the method: as §1
# [22] = molecular target: Neu5Ac(a2-3)Gal(b1-3)GalNAc(b1-4)[Neu5Ac(a2-3)]Gal(b1-4)Glc
# Summary of the method: as §1
# [23] = molecular target: Neu5Ac(a2-3)Gal(b1-3)GalNAc(b1-4)[Neu5Ac(a2-8)Neu5Ac(a2-3)]Gal(b1-4)Glc
# Summary of the method: as §1
# [24] = molecular target: Neu5Ac(a2-3)Gal(b1-3)GalNAc6S
# Summary of the method: as §1
# [25] = molecular target: Neu5Ac(a2-3)Gal(b1-3)GlcNAc
# Summary of the method: as §1
# [26] = molecular target: Neu5Ac(a2-3)Gal(b1-3)GlcNAc(b1-2)Man
# Summary of the method: as §1
# [27] = molecular target: Neu5Ac(a2-3)Gal(b1-3)GlcNAc(b1-2)Man(a1-3)[GlcNAc(b1-4)][Neu5Ac(a2-3)Gal(b1-3)GlcNAc(b1-2)Man(a1-6)]Man(b1-4)GlcNAc(b1-4)GlcNAc
# Summary of the method: as §1
# [28] = molecular target: Neu5Ac(a2-3)Gal(b1-3)GlcNAc(b1-2)Man(a1-3)[Neu5Ac(a2-3)Gal(b1-3)GlcNAc(b1-2)Man(a1-6)]Man(b1-4)GlcNAc(b1-4)GlcNAc
# Summary of the method: as §1
# [29] = molecular target: Neu5Ac(a2-3)Gal(b1-3)GlcNAc(b1-3)Gal(b1-3)GlcNAc
# Summary of the method: as §1
# [30] = molecular target: Neu5Ac(a2-3)Gal(b1-3)GlcNAc(b1-3)Gal(b1-4)GlcNAc
# Summary of the method: as §1
# [31] = molecular target: Neu5Ac(a2-3)Gal(b1-3)GlcNAc(b1-3)GalNAc
# Summary of the method: as §1
# [32] = molecular target: Neu5Ac(a2-3)Gal(b1-3)GlcNAc(b1-4)Gal(b1-4)Glc
# Summary of the method: as §1
# [33] = molecular target: Neu5Ac(a2-3)Gal(b1-3)GlcNAc(b1-6)GalNAc
# Summary of the method: as §1
binder,measurement,setting,value
B1,glycan array binding signal (z-score),[1],-0.176
same,glycan array binding signal (z-score),[2],-0.155
same,glycan array binding signal (z-score),[3],0.016
same,glycan array binding signal (z-score),[4],0.015
same,glycan array binding signal (z-score),GlcNAc(b1-6)GalNAc,-0.258
same,glycan array binding signal (z-score),[5],-0.076
same,glycan array binding signal (z-score),Kdn(a2-3)Gal(b1-3)GalNAc,-0.084
same,glycan array binding signal (z-score),Kdn(a2-3)Gal(b1-3)GlcNAc,-0.285
same,glycan array binding signal (z-score),Kdn(a2-3)Gal(b1-4)Glc,-0.334
same,glycan array binding signal (z-score),Kdn(a2-3)Gal(b1-4)GlcNAc,-0.212
same,glycan array binding signal (z-score),[6],0.034
same,glycan array binding signal (z-score),Kdn(a2-6)Gal(b1-4)GlcNAc,-0.26
same,glycan array binding signal (z-score),[7],0.539
same,glycan array binding signal (z-score),[8],-0.242
same,glycan array binding signal (z-score),Man(a1-2)Man(a1-3)Man,-0.359
same,glycan array binding signal (z-score),[9],-0.318
same,glycan array binding signal (z-score),[10],-0.291
same,glycan array binding signal (z-score),[11],-0.361
same,glycan array binding signal (z-score),[12],-0.316
same,glycan array binding signal (z-score),[13],-0.278
same,glycan array binding signal (z-score),[14],-0.15
same,glycan array binding signal (z-score),Man(a1-3)[Man(a1-6)]Man,-0.217
same,glycan array binding signal (z-score),[15],-0.074
same,glycan array binding signal (z-score),[16],-0.289
same,glycan array binding signal (z-score),[17],-0.222
same,glycan array binding signal (z-score),[18],-0.119
same,glycan array binding signal (z-score),[19],-0.233
same,glycan array binding signal (z-score),Man(a1-6)Man,-0.261
same,glycan array binding signal (z-score),Man(b1-4)GlcNAc,-0.358
same,glycan array binding signal (z-score),MurNAc(b1-4)GlcNAc,0.011
same,glycan array binding signal (z-score),Neu5Ac(a2-3)Gal,-0.309
same,glycan array binding signal (z-score),[20],-0.281
same,glycan array binding signal (z-score),[21],-0.183
same,glycan array binding signal (z-score),[22],-0.217
same,glycan array binding signal (z-score),[23],-0.037
same,glycan array binding signal (z-score),[24],-0.238
same,glycan array binding signal (z-score),[25],-0.09
same,glycan array binding signal (z-score),[26],-0.257
same,glycan array binding signal (z-score),[27],-0.254
same,glycan array binding signal (z-score),[28],-0.225
same,glycan array binding signal (z-score),[29],-0.432
same,glycan array binding signal (z-score),[30],-0.256
same,glycan array binding signal (z-score),[31],-0.09
same,glycan array binding signal (z-score),[32],-0.395
same,glycan array binding signal (z-score),[33],-0.321
